# The BET-seq Pho4 binding data (Le et al. 2018)
# This is one part of the list. These are noisy estimates, calculated here from bound and input reads.
# Biological target: T1, Pho4 (S. cerevisiae) (UniProt P07270)
# T1 sequence: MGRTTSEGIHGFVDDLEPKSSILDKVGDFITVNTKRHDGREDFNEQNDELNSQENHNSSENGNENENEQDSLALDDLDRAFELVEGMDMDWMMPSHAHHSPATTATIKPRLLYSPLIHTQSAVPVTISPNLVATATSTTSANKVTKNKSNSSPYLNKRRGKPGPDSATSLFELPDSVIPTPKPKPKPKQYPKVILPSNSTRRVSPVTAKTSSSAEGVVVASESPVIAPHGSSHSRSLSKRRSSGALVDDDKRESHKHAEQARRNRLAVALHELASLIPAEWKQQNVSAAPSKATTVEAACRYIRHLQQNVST
# Test: relative binding free energy (BET-seq); higher = weaker binding
# Conditions: reference: library average
row,Sequence,relative binding free energy [kcal/mol]
1,TAAGGCACGTGAGATA,0.09
2,CGTAGCACGTGGATAG,-0.03
3,ACGTCCACGTGTTTGT,0.03
4,ATAAGCACGTGGAATT,0.07
5,TTGAGCACGTGGTGTG,-0.18
6,TGCGGCACGTGGGGGG,-0.23
7,TGGAACACGTGGCATG,-0.06
8,GGTGGCACGTGGGAGG,-0.12
9,TTCATCACGTGGTGCA,0.1
10,GGGCGCACGTGGGCGT,-0.22
11,CGATGCACGTGGGCGT,-0.12
12,TAGGGCACGTGTGTGG,0
13,GATGGCACGTGCGTGG,-0.14
14,AGGATCACGTGAGTGG,0.38
15,AGCTACACGTGTAGGG,0.14
16,AAGGGCACGTGTGGCT,-0.05
17,AGGTACACGTGTGATT,0.19
18,ATGTACACGTGGCGTA,-0.09
19,TCTGTCACGTGTCGGT,0.02
20,GTTTGCACGTGGTGGA,0.02
21,TGGATCACGTGGTTCT,0.26
22,TAGAGCACGTGGTAGG,-0.21
23,TAATGCACGTGTTGCG,-0.05

row,Sequence,relative binding free energy [kcal/mol]
1,TTTTTCACGTGTCGTG,0.27
2,CTGTGCACGTGGTGGT,-0.11
3,GAAATCACGTGCTGGT,0.11
4,TGATTCACGTGTTGGC,0.28
5,GTGGGCACGTGAGAAG,0.18
6,ATTTGCACGTGGGTAG,-0.14
7,ATGTACACGTGGAGAT,0.06
8,TTACTCACGTGGCTGG,0.28
9,AGATTCACGTGTGGTC,0.13
10,GCGGGCACGTGGCTGT,-0.13
11,GAGGTCACGTGGCTAG,0.19
12,GTGTGCACGTGATATG,0.06
13,TTGGACACGTGCGTGT,-0.08
14,ACTGACACGTGTTTTG,0.14
15,GGGGTCACGTGCTCAG,0.07
16,AGGGTCACGTGCGCAG,-0.04
17,CAGGGCACGTGTGGGC,-0.08
18,TGCGTCACGTGGTGAG,0.04
19,TTCAGCACGTGGTGCT,-0.14
20,TTTGTCACGTGTTCGG,0.13
21,ATCTGCACGTGGGATT,-0.09
22,ATTGGCACGTGAGTTA,0.11
23,CGGTACACGTGATTGG,0.08

row,Sequence,relative binding free energy [kcal/mol]
1,TGCTTCACGTGTGATA,0.28
2,ATCTGCACGTGAGTTT,0.14
3,TTGGGCACGTGGCCGG,-0.27
4,GGTAGCACGTGTTAGT,0.05
5,GGTTACACGTGTAAAG,0.19
6,AATTACACGTGGGGCG,-0.02
7,GGAGTCACGTGTTCTG,0.13
8,GGTAACACGTGTGTGC,0.12
9,GGGGACACGTGAGGGG,0.17
10,TTAGGCACGTGTAGGT,-0.04
11,GGGTGCACGTGTAATA,0.17
12,GTCATCACGTGGTAGA,0.24
13,TATCACACGTGAGGTG,0.21
14,AATTGCACGTGCTAGG,0.01
15,GGTAGCACGTGTGCGT,0
16,GGAATCACGTGTGGTC,0.38
17,TTTCGCACGTGTTGTA,-0.02
18,TGTTTCACGTGGTTTT,0.19
19,TGTAACACGTGTTGTC,-0.06
20,TGGGTCACGTGCGGTA,0.1
21,GTTTTCACGTGCTGGG,0.31
22,CAAGTCACGTGGAGGG,0.02
23,CTTTACACGTGTGGTT,0.27

row,Sequence,relative binding free energy [kcal/mol]
1,AGTGGCACGTGGCCTG,-0.15
2,AGGTGCACGTGCCTGT,-0.11
3,TGCGCCACGTGGTTTT,-0.12
4,GGGAACACGTGGGTTG,-0.07
5,ATCGTCACGTGTTAAT,0.07
6,AAAGTCACGTGAAGGC,0.49
7,CAATTCACGTGTATGG,0.15
8,TTCGGCACGTGTTGTA,-0.01
9,TGTGGCACGTGTAGCT,-0.06
10,GATATCACGTGTGTGA,0.2
11,CTCAGCACGTGGTGTG,-0.2
12,GGTGGCACGTGGTAGG,-0.05
13,TGTGACACGTGTTTGC,0.13
14,ATTTTCACGTGAGGAA,0.36
15,CAGGTCACGTGCTGGT,0
16,GTAGGCACGTGTCGTA,-0.04
17,ATGACCACGTGTAGGT,-0.02
18,TAATGCACGTGAGAGG,0.17
19,ATGGTCACGTGCTGCT,0.09
20,CATGGCACGTGTGTAG,0
21,CATGTCACGTGCGTGT,-0.13
22,ATTTACACGTGTAAGA,0.14
23,TAGGACACGTGGTCGG,-0.05

row,Sequence,relative binding free energy [kcal/mol]
1,TTTATCACGTGAGTTT,0.37
2,TGTAGCACGTGATAAT,0
3,TATGTCACGTGGCGAT,0.14
4,CGTAGCACGTGGGGAG,-0.25
5,CTGTACACGTGGGTTA,0.03
6,TCTTTCACGTGTTAGG,0.35
7,AGCAGCACGTGAGTGT,0.2
8,AGCTGCACGTGGGTAA,-0.2
9,GGGGACACGTGCTGTG,-0.1
10,TGTTTCACGTGACTGT,0.47
11,GGCTACACGTGTGAGT,0.29
12,GAGCACACGTGTGGGA,0.25
13,ACGTGCACGTGGGTGT,-0.24
14,TTGGACACGTGGGTAG,-0.15
15,TGTAGCACGTGTTGAT,-0.03
16,ATGGGCACGTGGAAGA,-0.1
17,TTGGACACGTGTGGAG,0.08
18,GGCGCCACGTGGTTGT,-0.16
19,ATAACCACGTGGGGGT,-0.33
20,ACTTGCACGTGGATTG,0.04
21,TGCATCACGTGGAGTG,-0.03
22,TAGCGCACGTGGAATG,-0.08
23,CGGTTCACGTGAGCTG,0.42
